The structures appear in SMILES notation. The list shows a part of the results. Further columns of the screen follow, without active or inactive calls.

Results on 23 compounds are retold here after PubChem BioAssay AID2202238 (Ras Initiative Chemistry Research Team, Frederick National …, 2025).

The assay has as its target GTPase KRas (Homo sapiens) (UniProt P01116). Kind of assay: Covalent labelling of cysteine mutants by fragments, read by mass spectrometry (AID 2202238). The settings on record: KRAS G12D cysteine mutants, disulfide tethering, MALDI-TOF labeling, stronger effect = higher value, fragment at 500 µM. The arrangement: protein at 5 µM with 500 µM competing thiol for 1.5 h.
Sequence of UniProt P01116 (P01116 whole entry, looked up, the tested form may be a part): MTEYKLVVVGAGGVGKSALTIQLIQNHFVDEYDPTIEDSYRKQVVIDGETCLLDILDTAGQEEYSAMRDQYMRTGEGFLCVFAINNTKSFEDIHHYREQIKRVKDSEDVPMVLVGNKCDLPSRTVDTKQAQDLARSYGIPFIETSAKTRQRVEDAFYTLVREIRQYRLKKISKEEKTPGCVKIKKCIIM
Where [1] appears, read: measured here: G60C mutant labeling.
Where [2] appears, read: measured here: G75C mutant labeling.
[3] abbreviates: measured here: H94C mutant labeling.
[4] abbreviates: measured here: I36C mutant labeling.
Where [5] appears, read: measured here: L120C mutant labeling.
The mark [6] stands for this setting: measured here: M67C mutant labeling.
Setting [7] is: measured here: M72C mutant labeling.
Where [8] appears, read: measured here: N26C mutant labeling.
[9] abbreviates: measured here: N86C mutant labeling.
[10] abbreviates: measured here: P121C mutant labeling.
Setting [11] is: measured here: S122C mutant labeling.
[12] abbreviates: measured here: S136C mutant labeling.

For `O=C(NCCS)C1(Oc2ccc(Cl)cc2)CC1`, the percent labeling was found to be 38.4% under setting [1]; 16.2% under setting [2]; 23.1% under setting [3]; 12.6% under setting [4]; 22.4% under setting [5]; 20% under setting [6]. In addition, the percent labeling is, setting by setting: under setting [7], 22.7%; under setting [8], 28.8%; under setting [9], 13.8%; under setting [10], 18.6%; under setting [11], 15%; under setting [12], 24.8%.
With `Cc1cc(C)n(-c2ccc(NC(=O)CCS)cc2Cl)n1`, the percent labeling stood at 14.9% under setting [2]; 18.9% under setting [3]; 25.9% under setting [4]; 18.6% under setting [5]; 21.7% under setting [6]; 36.7% under setting [7]. Also, the percent labeling under setting [9] was found to be 13.6%, the percent labeling under setting [10] came to 20.1%, the percent labeling under setting [11] came out at 15.9% and the percent labeling under setting [12] was found to be 44.3%.
The compound `CC1(C(=O)NCCS)CC(c2ccccc2)=NO1` (stereo not drawn) showed a percent labeling under setting [1] of 23.2%; a percent labeling under setting [2] of 9.9%; a percent labeling under setting [3] of 22.5%; a percent labeling under setting [4] of 19.8%; a percent labeling under setting [5] of 15.5%; a percent labeling under setting [6] of 39.5%. In addition, the percent labeling by setting is: under setting [7], 19.5%; under setting [8], 32.6%; under setting [9], 7.4%; under setting [10], 39.2%; under setting [11], 12.7%; under setting [12], 54.6%.
Regarding `CC(C)c1onc(-c2ccccc2)c1C(=O)NCCS`, the percent labeling is, setting by setting: under setting [1], 49.9%; under setting [2], 11.7%; under setting [3], 25.7%; under setting [4], 10.2%; under setting [5], 18.1%; under setting [6], 25.1%. The percent labeling under setting [7] came out at 27.7%; the percent labeling under setting [8] amounted to 30.2%; the percent labeling under setting [9] stood at 11.7%; the percent labeling under setting [10] amounted to 20.4%; the percent labeling under setting [11] was 18.7%; the percent labeling under setting [12] is 31.6%.
With `Cc1c(C(=O)NCCS)oc(=O)c2ccccc12`, the percent labeling by setting is: under setting [1], 18.3%; under setting [2], 8.9%; under setting [3], 9.3%; under setting [4], 7.6%; under setting [5], 11.9%; under setting [6], 10%. In addition, the percent labeling by setting is: under setting [7], 40.2%; under setting [8], 25.6%; under setting [9], 8.4%; under setting [10], 42.7%; under setting [11], 9.1%; under setting [12], 21.2%.
As for `O=C(CCS)Nc1ccc(OC(F)F)nc1`, the percent labeling was 16.7% under setting [2]; 33% under setting [3]; 35.5% under setting [4]; 19.2% under setting [5]; 23.8% under setting [6]; 38% under setting [7]. The same compound showed a percent labeling under setting [9] of 20%, a percent labeling under setting [10] of 29.6%, a percent labeling under setting [11] of 28.7% and a percent labeling under setting [12] of 44.6%.
For `COc1ncc(C(=O)NCCS)c(C(F)F)n1`, the percent labeling worked out at 31.6% under setting [1]; 13.7% under setting [2]; 31.2% under setting [3]; 24.9% under setting [4]; 30.6% under setting [5]; 29.6% under setting [6]. For the same compound, the percent labeling runs as follows: under setting [7], 27.7%; under setting [8], 36.8%; under setting [9], 27.5%; under setting [10], 33.8%; under setting [11], 30.1%; under setting [12], 41.7%.
Take `O=C(CNC(=O)c1cccc2[nH]ccc12)NCCS`: the percent labeling runs as follows: under setting [1], 35.7%; under setting [2], 21.5%; under setting [3], 30.5%; under setting [4], 25.8%; under setting [5], 69.8%; under setting [6], 55.2%. For the same compound, the percent labeling reads like this: under setting [7], 43.7%; under setting [8], 38.3%; under setting [9], 32.7%; under setting [10], 35.3%; under setting [11], 55%; under setting [12], 41.9%.
Consider `O=C(CCS)NCCn1ccn2nccc2c1=O`, for which the percent labeling was determined as 7.6% under setting [2]; 23.3% under setting [3]; 38% under setting [4]; 29.7% under setting [5]; 29.7% under setting [6]; 12.1% under setting [7]. Also, the percent labeling under setting [9] amounted to 21%, the percent labeling under setting [10] is 35.8%, the percent labeling under setting [11] was found to be 29.3% and the percent labeling under setting [12] is 45.6%.
As for `O=C(NCCS)c1cccc2nc(C(F)F)sc12`, the percent labeling came to 33.4% under setting [1]; 25.8% under setting [2]; 14.2% under setting [3]; 11.6% under setting [4]; 21.6% under setting [5]; 20.2% under setting [6]. The percent labeling came to 58.2% under setting [7]; 32.3% under setting [8]; 16.2% under setting [9]; 16% under setting [10]; 7.1% under setting [11]; 25.6% under setting [12].
Take `Cn1cc(C(=O)NCCS)c(-c2coc3ccccc23)n1`: the percent labeling was found to be 32.4% under setting [1]; 18.5% under setting [2]; 22% under setting [3]; 13.7% under setting [4]; 26.9% under setting [5]; 24% under setting [6]. The compound further registered a percent labeling under setting [7] of 49.6%; a percent labeling under setting [8] of 31.8%; a percent labeling under setting [9] of 12.1%; a percent labeling under setting [10] of 17.1%; a percent labeling under setting [11] of 12.6%; a percent labeling under setting [12] of 24.2%.
Take `O=C(CCS)Nc1ccc2nc[nH]c(=O)c2c1`: the percent labeling came to 13.8% under setting [2]; 24.8% under setting [3]; 42.8% under setting [4]; 22.9% under setting [5]; 23.9% under setting [6]; 30.1% under setting [7]. This compound registered a percent labeling under setting [9] of 42.8%, a percent labeling under setting [10] of 25.6%, a percent labeling under setting [11] of 24.7% and a percent labeling under setting [12] of 52.9%.
For the compound `O=C(NCCS)C1(c2cccc(Br)c2)CCOCC1`, the percent labeling came out at 43.6% under setting [1]; 23% under setting [2]; 25.5% under setting [3]; 14.6% under setting [4]; 28.6% under setting [5]; 25% under setting [6]. The percent labeling stood at 31.6% under setting [7]; 28.5% under setting [8]; 15.3% under setting [9]; 18.9% under setting [10]; 13.6% under setting [11]; 40.3% under setting [12].
With `CC(C(=O)NCCS)N1CCC(Cc2ccccc2)CC1` (stereo not drawn), the percent labeling amounted to 41.2% under setting [1]; 25.9% under setting [2]; 32.1% under setting [3]; 30.1% under setting [4]; 25.2% under setting [5]; 56.3% under setting [6]. The compound further came in with a percent labeling under setting [7] of 27.9%; a percent labeling under setting [8] of 37.9%; a percent labeling under setting [9] of 15.9%; a percent labeling under setting [10] of 24.1%; a percent labeling under setting [11] of 17.2%; a percent labeling under setting [12] of 32.8%.
Turning to `O=C(CCS)Nc1cccc(Cn2nc3ccccn3c2=O)c1`, the percent labeling under setting [2] is 11.5%; the percent labeling under setting [3] was 27.9%; the percent labeling under setting [4] was found to be 35.6%; the percent labeling under setting [5] amounted to 19%; the percent labeling under setting [6] turned out to be 27.2%; the percent labeling under setting [7] came out at 26.7%. The percent labeling runs as follows: under setting [9], 16%; under setting [10], 19.9%; under setting [11], 17.1%; under setting [12], 36.6%.
With `O=C(CCS)N1CCN(C(=O)Cc2cccc(F)c2)CC1`, the percent labeling was 12.4% under setting [2]; 31.7% under setting [3]; 37.8% under setting [4]; 31.6% under setting [5]; 42.1% under setting [6]; 19.7% under setting [7]. Further, the percent labeling is, setting by setting: under setting [9], 19%; under setting [10], 36.8%; under setting [11], 36.9%; under setting [12], 63%.
The compound `Cc1cc(CN(C(=O)CCS)C2CC2)cc(S(N)(=O)=O)c1C` yielded a percent labeling under setting [2] of 20.6%; a percent labeling under setting [3] of 43.5%; a percent labeling under setting [4] of 31.2%; a percent labeling under setting [5] of 29%; a percent labeling under setting [6] of 55.5%; a percent labeling under setting [7] of 36.8%. Further, the percent labeling was determined as 25% under setting [9], 26.7% under setting [10], 24.2% under setting [11] and 54.8% under setting [12].
Take `CC(C)c1noc(C2(NC(=O)CCS)CCOCC2)n1`: the percent labeling was 8.4% under setting [2]; 36.8% under setting [3]; 39% under setting [4]; 31.8% under setting [5]; 36% under setting [6]; 18.9% under setting [7]. Besides, the percent labeling reads like this: under setting [9], 29.7%; under setting [10], 34.5%; under setting [11], 35.3%; under setting [12], 54.5%.
For the compound `CC(C)c1nn(C)c2sc(C(=O)NCCS)cc12`, the percent labeling under setting [1] was 28.6%; the percent labeling under setting [2] is 14.8%; the percent labeling under setting [3] was 21.9%; the percent labeling under setting [4] amounted to 16.1%; the percent labeling under setting [5] was found to be 22.4%; the percent labeling under setting [6] was determined as 18.2%. Further, the percent labeling is, setting by setting: under setting [7], 38.4%; under setting [8], 36.6%; under setting [9], 15.1%; under setting [10], 15.7%; under setting [11], 15.3%; under setting [12], 32.4%.
For `O=C(NCCS)c1csc(-c2cc(Br)cs2)n1`, the percent labeling runs as follows: under setting [1], 18.4%; under setting [2], 17.3%; under setting [3], 9%; under setting [4], 4.5%; under setting [5], 9.5%; under setting [6], 5.3%. Also, the percent labeling by setting is: under setting [7], 41.2%; under setting [8], 17.7%; under setting [9], 8%; under setting [10], 7.9%; under setting [11], 3.4%; under setting [12], 7.3%.
Consider `CCc1ncncc1C(=O)NCCS`, for which the percent labeling came out at 36.4% under setting [1]; 25% under setting [2]; 37.3% under setting [3]; 30.4% under setting [4]; 31.2% under setting [5]; 31.8% under setting [6]. Besides, the percent labeling reads like this: under setting [7], 24.6%; under setting [8], 38.7%; under setting [9], 28.8%; under setting [10], 36.3%; under setting [11], 34.5%; under setting [12], 45.7%.
In the case of `O=C(NCCS)C1COCCN1CC(F)(F)F` (stereo not drawn), the percent labeling reads like this: under setting [1], 23.6%; under setting [2], 10.8%; under setting [3], 30.8%; under setting [4], 20.1%; under setting [5], 36.2%; under setting [6], 31.5%. Also, the percent labeling came out at 19.5% under setting [7]; 34.5% under setting [8]; 33.5% under setting [9]; 32.5% under setting [10]; 38% under setting [11]; 39.2% under setting [12].
As to `O=C(CCS)NCc1ccn(CC(F)F)n1`, the percent labeling turned out to be 8.9% under setting [2]; 24.3% under setting [3]; 36.1% under setting [4]; 26.9% under setting [5]; 27.7% under setting [6]; 12.6% under setting [7]. In addition, the percent labeling came out at 19.2% under setting [9], 25.2% under setting [10], 35.4% under setting [11] and 45.6% under setting [12].
